The full ranking holds about 33,000 sequences; the median of “E-score (-0.5 to 0.5)” is about -0.035, and the highest 2% start at about 0.34. The list shows a part of the results.
The sequences below were run against T1, Mot3 (UniProt P54785) (assay: PBM E-score (8-mer binding enrichment) (E-score (-0.5 to 0.5)); higher = stronger / more preferred TF binding; most listed sequences are background and not binding sites). Settings: protein concentration: 200 nM; construct: GST-full length.
T1 sequence: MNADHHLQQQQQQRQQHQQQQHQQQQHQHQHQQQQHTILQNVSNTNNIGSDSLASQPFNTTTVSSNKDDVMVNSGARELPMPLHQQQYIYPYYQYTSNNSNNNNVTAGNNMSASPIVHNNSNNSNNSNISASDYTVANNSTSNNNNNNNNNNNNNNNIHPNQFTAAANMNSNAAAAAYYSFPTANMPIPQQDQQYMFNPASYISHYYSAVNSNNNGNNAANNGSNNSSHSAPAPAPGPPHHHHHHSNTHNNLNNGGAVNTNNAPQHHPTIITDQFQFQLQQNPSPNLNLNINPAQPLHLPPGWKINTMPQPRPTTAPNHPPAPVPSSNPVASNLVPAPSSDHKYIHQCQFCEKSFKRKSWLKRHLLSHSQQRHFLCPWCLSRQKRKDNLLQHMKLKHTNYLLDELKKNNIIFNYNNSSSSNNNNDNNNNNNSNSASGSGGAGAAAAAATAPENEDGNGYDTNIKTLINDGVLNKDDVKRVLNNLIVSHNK
Experimental: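 Universal 'all 10-mer' protein binding microarrays (Agilent AMADID 015681) probed with GST-tagged S. cerevisiae TFs (full-length or DBD) made by in vitro transcription/translation (PURExpress), about 100-200 nM. Bound TF was detected with fluorescent anti-GST. Each ungapped 8-mer (which stands for itself and its reverse complement) is scored by the PBM enrichment score (E-score), a modified Wilcoxon-Mann-Whitney statistic from -0.5 to +0.5, computed with the Universal PBM Analysis Suite. Scale: above 0.35 generally sequence-specific binding.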

Sequence	PBM E-score
GCGGCCAC	-0.231
CTACACCC	0.12
CGGTCGCC	-0.154
CTGAGGGC	-0.244
ATAAATAT	0.0384
ACCACACT	-0.227
TTACCCAA	-0.0266
CGGTATCC	-0.225
ATCCCTCC	-0.172
CGTGTAAC	0.351
GACGAAGA	0.113
ATAATTGA	0.0245
TAGCTTGA	-0.219
TAGTGCGA	-0.114
CCCTCGCG	-0.248
ACCCCTAT	-0.205
AAGATGAA	-0.0005
ATCAAGAA	0.0842
AGTATCCA	-0.198
CGATGTGC	-0.0386
CAGTGTGA	-0.0111
GTCAACGA	0.00887
CGACCTGC	-0.108
AGCTACTG	-0.072
TGATTACA	0.311

Sequence	PBM E-score
TAACGCCA	0.0747
CAACCTCC	-0.262
ATGCCTAG	0.199
CTGTATGA	-0.0792
ACGTAGAG	0.223
CGATCCGA	-0.316
CTGCGCAA	0.00055
TAACTACA	0.281
CAAAACAC	0.2
CACCCTCC	-0.357
CCAGTAGC	-0.166
GATTGTTA	0.173
CCTCAGCG	-0.137
AGTGGAAG	-0.119
ATGAACTG	0.0964
CCCGACTC	-0.0361
AAACCTTC	-0.122
AACGAGCT	-0.0281
GTGCGTTA	0.16
TGATACAA	0.0668
GATGGCCA	-0.226
ACTCCCAC	-0.172
GACAGGAA	0.374
CACCCTGA	-0.0388
ACCATTCT	-0.258

Sequence	PBM E-score
ACGGGGCG	-0.144
CATGGCGC	-0.139
CACGACGC	0.0834
CGCCCGCC	-0.293
ACGACTAG	-0.0453
AACGCATG	0.179
ATACATCG	0.197
CGCATCCG	-0.144
AGATTTGC	0.0727
ATCCATTA	-0.0227
AGTACAGC	-0.113
AAAACCGC	-0.144
ACTCCTCA	-0.0455
AGGTCGTA	0.0905
AACAAGTT	0.126
AGTGCAGA	-0.23
AAACTCCA	0.163
ATACAATC	-0.0586
CTCACACC	-0.25
CGTGTGGC	-0.211
AGTCATGG	-0.17
ACTACCAG	-0.00138
CCCTGCTA	-0.165
GCTATGCC	-0.028
TCTATCAA	0.126

Sequence	PBM E-score
AATAAAGT	0.046
AGAGAATG	-0.198
ACCATGCG	-0.183
GGGTCGCA	-0.00482
ATCGCCAA	-0.129
CGCCTATC	-0.00366
GCTCTTGA	-0.221
ATGTCCTC	0.034
CATTGGTA	-0.196
AATTGTCG	-0.115
CGACGTGC	-0.0196
ATCGTCTA	-0.0581
CGAACTTA	-0.0308
AAGGAGTA	-0.0587
CCTCGAAA	0.0518
AGTCGACA	0.0723
CTTAACTC	0.194
TATGGCCA	-0.0242
CGGCCAGC	-0.294
AGAGCTCT	-0.183
AGCCCGAG	-0.243
GGCGATGA	-0.179
ACCAGCAC	-0.0633
CCAAGCCG	-0.251
ACTTCCCT	-0.0558

Sequence	PBM E-score
CAGGCGTA	0.137
CCCAGAGC	-0.281
GGCATACA	0.05
ACAGTCAC	0.212
TAAGTTGA	0.0854
GGTTCACA	-0.015
GAGTGCCC	0.036
AAGGTATA	0.113
ATCCGCGA	-0.0116
CACCCACC	-0.0829
CCCCAGAA	-0.205
ACCAATGG	-0.236
TAAGCGCA	0.026
CGTCTGTC	-0.207
CTACAAGA	0.146
AATACTCG	0.00449
CGCTTTCA	-0.00824
GACATGAA	0.274
CGCGCACG	-0.0382
CTTCTAAC	-0.0665
AACTATAA	0.021
TAAGCCTA	0.0259
CAGCTCCG	-0.1
CTCTAACC	-0.154
ACTTGGCA	-0.0172

Sequence	PBM E-score
CGTAGCAG	-0.155
GGACTTCA	-0.382
ACTTCGCG	0.0415
ACTACAAG	0.258
AGCCTATG	0.0839
GTTCTCAA	0.146
CGACGCAC	0.0929
GATGGACC	-0.0623
CATGACCC	-0.0801
CTCAACCC	-0.227
GCCACCAC	-0.245
CACTTGCC	0.144
CTCAGGTC	-0.11
CTGCCTAA	0.258
GGAACAGA	0.155
ATTTATGG	-0.00114
ATGACCCG	-0.155
GCATACGA	-0.0798
CCGCAGAA	-0.0629
CATGTAGC	0.276
AAGCGTGC	0.193
TCTTTGCA	0.0106
CGTTTTCC	0.108
CGAACGAA	-0.196
AGCTCTCA	-0.0899

Sequence	PBM E-score
GTTTTGCA	0.0564
AGTTTCTG	0.0079
GAGCTTCA	-0.152
ACGAATTG	0.0886
CTAAGCAA	-0.0673
GTTTAGTA	0.105
AAGCTCTG	-0.152
CAAGTTTA	0.0105
GCGGTTAC	-0.0321
GATCGAAC	-0.09
CCCAGTGC	-0.111
AGTCTTTG	-0.137
ACCACTCG	0.0316
CCCTCCTC	-0.372
GTAGTGGA	0.114
ACCCTAGC	-0.124
ATACATAC	0.28
AAATAAGT	0.0509
ATAGCAGC	-0.314
AATCCGAG	-0.0353
AGGAATGC	-0.0374
AACAGCAC	0.1
TAACAGCA	0.208
GCTGAGGA	-0.138
ACGGTTAG	-0.101

Sequence	PBM E-score
GCATCGGA	-0.0715
CGGATTCA	-0.136
ACGTACCA	0.0585
AATCTCTC	-0.0138
CTTTGACC	0.0618
GGCCTTGA	-0.00182
TCTTTCAA	0.0038
GGGTATTA	-0.033
ACCCGAAA	-0.0369
ACGAGGTC	-0.144
GGCCGTAC	-0.105
GCGGGTAA	-0.164
AGCATTAT	0.146
CATAGAGG	0.137
CGTCATGA	-0.0741
ATACCGAG	-0.0998
ACTGGTAC	-0.042
ATTTGCCC	-0.0699
CGTGAACA	0.108
AATTAGGC	0.165
ATATGTGC	0.0292
CTCATTTC	0.102
AATCCGGC	-0.249
GTCCTTAA	0.0485
CCTAATTA	0.0788

Sequence	PBM E-score
CCCCCATC	-0.328
TCCGTCCA	-0.282
ATAGTCTA	-0.101
TAGGTCAA	0.0607
CGTAATAG	0.24
CGTACCGA	-0.124
CCTTTCTC	-0.0866
CAGTCATC	-0.198
CCACCTGC	-0.0492
ATATATTC	0.103
CTGCATCC	-0.191
ACAAACAA	0.126
AAACTCTT	0.0601
GACAAGGA	0.0365
CTAGTGCC	0.225
CCTTGGAA	0.0528
GTGGCGGA	-0.128
AGGATACA	0.157
CCTGAGCA	0.118
ACTACCAC	-0.0746
AATCCGTC	-0.126
CGAAGAAG	0.0168
ACCCAAGC	-0.261
GAACGGGA	0.0191
AGGGATTA	0.0194

Sequence	PBM E-score
AGAAATCC	-0.161
GTACACAC	0.276
GAGTGGCA	-0.298
AGTCTCAA	-0.169
ACTACCTG	0.0234
ACAAGGCA	0.449
CAGCCACG	-0.185
CTTGATGA	0.0927
CTAAATAC	0.0705
TGACTAAA	0.0227
AAAAGGCT	0.0632
ACTAGGTA	0.254
CCGACATA	0.126
TGGGCCCA	-0.254
TAACCAAA	0.121
GGCGTAAA	0.146
ACCGTCGA	-0.0212
ATTGAGAA	0.0935
AGTGGTAA	0.115
CGTCCATC	-0.286
CGAAGATC	0.0227
ACCTGTCG	0.177
CGTCGAAG	-0.0226
CCCCCAAG	-0.16
AGCCGAAC	-0.186

Sequence	PBM E-score
CCAGCACG	-0.147
GACCGCAA	-0.146
GCAACCTA	0.121
GCGGTTCA	0.0528
CATCTCTA	-0.0508
AAGAACCG	0.0999
ACATTCCT	-0.105
ACGAACAG	-0.0228
CGCCGATC	-0.23
TGGGACAA	0.0777
GCCAAAAA	-0.0326
ATAAACAC	0.259
CACAAACC	-0.0656
ATGCACGA	-0.0737
AACTACAT	0.336
ACTTCTAT	0.0312
CCTCCAGG	0.124
CTCAGGAC	-0.249
ACATGGAG	0.189
ACAAGTGT	0.109
ATAATTAA	0.227
AGCATCAC	-0.184
GAGCTCCA	-0.156
CGCCCTGA	-0.197
CTGGTATC	-0.165

Sequence	PBM E-score
GCATGAAA	-0.0572
GCACCGCC	-0.168
ACGATCTG	-0.094
AGCAGGGC	-0.0277
GATCGGTA	-0.128
AAGACATT	0.0444
GCAGCAGA	-0.144
ATCTGTGG	-0.213
GCGTTACA	0.162
ATTCCGGA	-0.151
GCAAAAAA	0.203
GAAAAAGA	0.0781
GCCCTGTA	0.0831
AGTACTTC	0.013
ATAATCCG	-0.0686
GTTTTCTA	0.137
CGTATCCC	-0.105
AGAACCAG	-0.14
GGTTCAAA	-0.0312
ATTAAGTG	0.081
CGCACCAG	-0.0361
CAGGAATC	-0.0987
TATAATGA	-0.00965
ATTTCATC	-0.0147
GCGCCACC	-0.185

Sequence	PBM E-score
GCGCGGGA	-0.228
CAGACGCC	-0.0483
ATTTGCAG	0.0042
GCGTTCCA	-0.118
AGGCGAAG	-0.118
CCGCCCAA	-0.194
AGTCGTAG	-0.174
GCGTTTCC	0.0476
GCATATTA	0.115
CCTTGGCC	-0.135
CAACGCTC	-0.067
CAGAGGAG	-0.273
ATTGGCCG	-0.176
CCTTTCAC	0.0961
AGCGTGAT	-0.153
GTACGTCA	0.0225
TACAGGAA	0.43
CTACCTTA	0.0561
ATGATTCG	-0.0643
GAGTTCTA	0.0214
AACACCTT	0.258
GACGAGGC	-0.0659
TAGCCACA	-0.0656
TCTTCCAA	0.00517
GACGTTCC	0.0787

Sequence	PBM E-score
GAATACTA	0.182
ATAGGTTA	0.153
AGTAGACT	-0.00298
CTTGTTGA	0.262
AATTCTAA	0.0387
ACATTGCT	0.207
TGGGGAAA	-0.146
CGGTCCTA	-0.284
CAGCATAA	0.0887
GGATTCAA	-0.157
CCTAAATC	0.101
CATAAAAA	0.116
AAACATCG	0.00325
AATCGGCT	-0.111
GCCCATCC	-0.144
CATTGTGC	0.0988
TACTAACA	0.238
CGGCGGCC	-0.248
CAAAGTTC	-0.0273

Reference: the supplement of paper PMC3334620
